The text below walks through data of patent publication US20240052065A1 (Boehringer Ingelheim, published 2024).

Holding throughout (assay): SPR (ProteOn XPR36), bispecific captured on protein A/G, CDH3 as analyte, 1:1 Langmuir fit
Test [1] has as its target T1, recombinant human CDH3 [EC1-EC2] (human, UniProt P22223 part only, limits assumed).
T1 construct: also called HuCDH3 EC1-EC2

The target of test [2] is T2, recombinant human CDH3 [EC2-EC3] (human, UniProt P22223 216-440, limits assumed).
T2 construct: no separate entry is named for EC3; also called HuCDH3_EC2-EC3; EC2-EC3 peptide

For test [3], the target named is T3, recombinant human CDH3, full-length (human, UniProt P22223 part only, limits assumed).
T3 construct: also called HuCDH3 full-length; human full-length CDH3

B1: bispecific binding molecule CDH3/TRAILR2v5 (bispecific antibody, human IgG1, kappa)
heavy: QVQLQESGPGLVKPSETLSLTCTVSGGSISSYYWSWFRQPAGKGLEWIGRIYSSGSTNYNPSLKSRVTMSVDTSKNQFSLKLSSVTAADTAVYYCARGMGVTGLFDYWGQGTLVTVSSASTKGPSVFPLAPSSKSTSGGTAALGCLVKDYFPEPVTVSWNSGALTSGVHTFPAVLQSSGLYSLSSVVTVPSSSLGTQTYICNVNHKPSNTKVDKRV[letters of human IgG1 Fc with changes not shown]GGSGGSSSELTQDPAVSVALGQTVRITCQGDSLRSYYASWYQQKPGQAPVLVIYGKNNRPSGIPDRFSGSSSGNTASLTITGAQAEDEADYYCNSRDSSGNHVVFGGGTKLTVLGGGGSGGGGSGGGGSGGGGSEVQLVQSGGGVERPGGSLRLSCAASGFTFDDYGMSWVRQAPGKGLEWVSGINWNGGSTGYADSVKGRVTISRDNAKNSLYLQMNSLRAEDTAVYYCAKILGAGRGWYFDLWGKGTTVTVSS
light: DIVMTQSPDSLAVSLGERATINCKSSQSVLYSSNNKNYLAWYQQKPGQPPKLLIYWASTRESGVPDRFSGSGSGTDFTLTISSLQAEDVAVYYCQQYYSTMYTFGQGTKLEIKRTVAAPSVFIFPPSDEQLKSGTASVVCLLNNFYPREAKVQWKVDNALQSGNSQESVTEQDSKDSTYSLSSTLTLSKADYEKHKVYACEVTHQGLSSPVTKSFNRGEC
notes: also called CDH3/TR2v5
Regarding B1, the Kd is 2.76 nM in test [1], 29.8 nM in test [2] and 2.43 nM in test [3].

B2: bispecific binding molecule CDH3/TRAILR2v4 (bispecific antibody, human IgG1, kappa)
heavy: QVQLQESGPGLVKPSETLSLTCTVSGGSISGYYWSWIRQPAGKGLEWIGRIYTSGNTIYNPSLKSRVTMSVDTSKNQFSLRLTSVTAADTAVYYCARGNPLATYFGYWGQGTLVTVSSASTKGPSVFPLAPSSKSTSGGTAALGCLVKDYFPEPVTVSWNSGALTSGVHTFPAVLQSSGLYSLSSVVTVPSSSLGTQTYICNVNHKPSNTKVDKRV[letters of human IgG1 Fc with changes not shown]GGSGGSSSELTQDPAVSVALGQTVRITCQGDSLRSYYASWYQQKPGQAPVLVIYGKNNRPSGIPDRFSGSSSGNTASLTITGAQAEDEADYYCNSRDSSGNHVVFGGGTKLTVLGGGGSGGGGSGGGGSGGGGSEVQLVQSGGGVERPGGSLRLSCAASGFTFDDYGMSWVRQAPGKGLEWVSGINWNGGSTGYADSVKGRVTISRDNAKNSLYLQMNSLRAEDTAVYYCAKILGAGRGWYFDLWGKGTTVTVSS
light: DIEMTQSPDSLAVSLGERATINCKSSQSVLYSSNNKNYLAWYQQKPGQPPKLLIYWASTRESGVPDRFSGSGSGTDFTLTISSLQAEDVAVYYCQQYYSTMYTFGQGTKLEIKRTVAAPSVFIFPPSDEQLKSGTASVVCLLNNFYPREAKVQWKVDNALQSGNSQESVTEQDSKDSTYSLSSTLTLSKADYEKHKVYACEVTHQGLSSPVTKSFNRGEC
notes: also called CDH3/TR2v4
For the molecule B2, the results for the Kd in test [1], in test [2] and in test [3] were 1.62 nM, 1.06 nM and 5.36 nM, respectively.

B3: bispecific binding molecule CDH3/TRAILR2v6 (bispecific antibody, human IgG1, kappa)
heavy: QVQLQESGPGLVKPSETLSLTCTVSGGSINNYYWTWIRQPAGKGLEWIGRIYSSGSTNYTPSLKSRVTMSVDTSKNQFSLKLSSVTAADTAVYFCAREGYNDGYGYFDHWGQGTLVTVSSASTKGPSVFPLAPSSKSTSGGTAALGCLVKDYFPEPVTVSWNSGALTSGVHTFPAVLQSSGLYSLSSVVTVPSSSLGTQTYICNVNHKPSNTKVDKRV[letters of human IgG1 Fc with changes not shown]GGSGGSSSELTQDPAVSVALGQTVRITCQGDSLRSYYASWYQQKPGQAPVLVIYGKNNRPSGIPDRFSGSSSGNTASLTITGAQAEDEADYYCNSRDSSGNHVVFGGGTKLTVLGGGGSGGGGSGGGGSGGGGSEVQLVQSGGGVERPGGSLRLSCAASGFTFDDYGMSWVRQAPGKGLEWVSGINWNGGSTGYADSVKGRVTISRDNAKNSLYLQMNSLRAEDTAVYYCAKILGAGRGWYFDLWGKGTTVTVSS
light: DIVMTQSPDSLAVSLGERATINCKSSQSVLYSSKNKNYLAWYQQKPGQPPKLLIYWASTRESGVPDRFSGSGSGTDFTLTISSLQAEDVAVYYCQQYYSTFRTFGQGTKVEIKRTVAAPSVFIFPPSDEQLKSGTASVVCLLNNFYPREAKVQWKVDNALQSGNSQESVTEQDSKDSTYSLSSTLTLSKADYEKHKVYACEVTHQGLSSPVTKSFNRGEC
notes: also called CDH3/TR2v6
With B3, the Kd in test [1] was 2.79 nM; in test [2] it was 35.1 nM; in test [3], 3.19 nM.
